# This is one part of the list. The list includes weakly bound sequences.
# Target: T1, MBP-FoxP3dN (UniProt Q99JB6)
# T1 sequence: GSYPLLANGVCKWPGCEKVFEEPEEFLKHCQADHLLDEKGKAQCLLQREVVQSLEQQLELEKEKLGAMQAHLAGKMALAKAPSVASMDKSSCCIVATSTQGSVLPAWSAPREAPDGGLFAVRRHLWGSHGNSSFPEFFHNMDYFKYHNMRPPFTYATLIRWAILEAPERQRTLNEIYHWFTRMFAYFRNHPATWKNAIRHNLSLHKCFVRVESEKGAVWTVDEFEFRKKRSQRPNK
# Test: PD-seq (MBP pull-down with sequencing)
# Details: 20 mM Tris-HCl pH 7.5, 100 mM NaCl, 1.5 mM MgCl2, 0.4 uM protein, 0.1 uM dsDNA library, 30 min, room temperature, amylose pull-down; high values mean tight binding; double strand, one strand shown
row,Sequence,binding signal (RPM ratio (pull-down/input))
1,GATGATTGTTCTCCCAGCTGATGAATTAATAATCTCGAGTAAACAAATTTTCCTAATCTTTCTGTTCAAGCGCCATCTAC,0.428
2,GATGATTGTTCTCCCAGCTGATGAATTGCCTGGATCGAGTAAACAAATTTTCCTAATCTTTCTGTTCAAGCGCCATCTAC,0.449
3,GATGATTGTTCTCCCAGCTGATGAATTGCTTGGGTCGAGTAAACAAATTTTCCTAATCTTTCTGTTCAAGCGCCATCTAC,0.775
4,GATGATTGTTCTCCCAGCTGATGAATTGGTTATATCGAGTAAACAAATTTTCCTAATCTTTCTGTTCAAGCGCCATCTAC,0.961
5,GATGATTGTTCTCCCAGCTGATGAATTGATCGCGTCGAGTAAACAAATTTTCCTAATCTTTCTGTTCAAGCGCCATCTAC,0.539
6,GATGATTGTTCTCCCAGCTGATGAATTCACTATGTCGAGTAAACAAATTTTCCTAATCTTTCTGTTCAAGCGCCATCTAC,0.482
7,GATGATTGTTCTCCCAGCTGATGAATTTTAGTCTTCGAGTAAACAAATTTTCCTAATCTTTCTGTTCAAGCGCCATCTAC,0.359
8,GATGATTGTTCTCCCAGCTGATGAATTTGCTTTGTCGAGTAAACAAATTTTCCTAATCTTTCTGTTCAAGCGCCATCTAC,6.34
9,GATGATTGTTCTCCCAGCTGATGAATTACCCAGTTCGAGTAAACAAATTTTCCTAATCTTTCTGTTCAAGCGCCATCTAC,0.256
10,GATGATTGTTCTCCCAGCTGATGAATTCTTACCATCGAGTAAACAAATTTTCCTAATCTTTCTGTTCAAGCGCCATCTAC,0.29
11,GATGATTGTTCTCCCAGCTGATGAATTCTGCCGGTCGAGTAAACAAATTTTCCTAATCTTTCTGTTCAAGCGCCATCTAC,0.75
12,GATGATTGTTCTCCCAGCTGATGAATTATACCACTCGAGTAAACAAATTTTCCTAATCTTTCTGTTCAAGCGCCATCTAC,0.6
13,GATGATTGTTCTCCCAGCTGATGAATTCCGCCGTTCGAGTAAACAAATTTTCCTAATCTTTCTGTTCAAGCGCCATCTAC,1.53
14,GATGATTGTTCTCCCAGCTGATGAATTCGGGTTCTCGAGTAAACAAATTTTCCTAATCTTTCTGTTCAAGCGCCATCTAC,0.692
15,GATGATTGTTCTCCCAGCTGATGAATTGCCTCACTCGAGTAAACAAATTTTCCTAATCTTTCTGTTCAAGCGCCATCTAC,0.851
16,GATGATTGTTCTCCCAGCTGATGAATTCGGCCCGTCGAGTAAACAAATTTTCCTAATCTTTCTGTTCAAGCGCCATCTAC,1.14

row,Sequence,binding signal (RPM ratio (pull-down/input))
1,GATGATTGTTCTCCCAGCTGATGAATTTACGACATCGAGTAAACAAATTTTCCTAATCTTTCTGTTCAAGCGCCATCTAC,0.807
2,GATGATTGTTCTCCCAGCTGATGAATTGTGCGATTCGAGTAAACAAATTTTCCTAATCTTTCTGTTCAAGCGCCATCTAC,2.62
3,GATGATTGTTCTCCCAGCTGATGAATTCGAAGTCTCGAGTAAACAAATTTTCCTAATCTTTCTGTTCAAGCGCCATCTAC,0.336
4,GATGATTGTTCTCCCAGCTGATGAATTGTGTCGTTCGAGTAAACAAATTTTCCTAATCTTTCTGTTCAAGCGCCATCTAC,2.73
5,GATGATTGTTCTCCCAGCTGATGAATTCCCCCTTTCGAGTAAACAAATTTTCCTAATCTTTCTGTTCAAGCGCCATCTAC,0.264
6,GATGATTGTTCTCCCAGCTGATGAATTCCCTGGATCGAGTAAACAAATTTTCCTAATCTTTCTGTTCAAGCGCCATCTAC,0.189
7,GATGATTGTTCTCCCAGCTGATGAATTCTCAGCTTCGAGTAAACAAATTTTCCTAATCTTTCTGTTCAAGCGCCATCTAC,0.293
8,GATGATTGTTCTCCCAGCTGATGAATTCGTATGGTCGAGTAAACAAATTTTCCTAATCTTTCTGTTCAAGCGCCATCTAC,1.74
9,GATGATTGTTCTCCCAGCTGATGAATTGCGGAACTCGAGTAAACAAATTTTCCTAATCTTTCTGTTCAAGCGCCATCTAC,0.52
10,GATGATTGTTCTCCCAGCTGATGAATTCCGCCGGTCGAGTAAACAAATTTTCCTAATCTTTCTGTTCAAGCGCCATCTAC,0.838
11,GATGATTGTTCTCCCAGCTGATGAATTACTTGTCTCGAGTAAACAAATTTTCCTAATCTTTCTGTTCAAGCGCCATCTAC,0.659
12,GATGATTGTTCTCCCAGCTGATGAATTCGGACCTTCGAGTAAACAAATTTTCCTAATCTTTCTGTTCAAGCGCCATCTAC,0.266
13,GATGATTGTTCTCCCAGCTGATGAATTTGAGCACTCGAGTAAACAAATTTTCCTAATCTTTCTGTTCAAGCGCCATCTAC,0.481
14,GATGATTGTTCTCCCAGCTGATGAATTTGTTACTTCGAGTAAACAAATTTTCCTAATCTTTCTGTTCAAGCGCCATCTAC,4.02
15,GATGATTGTTCTCCCAGCTGATGAATTAAGGAGTTCGAGTAAACAAATTTTCCTAATCTTTCTGTTCAAGCGCCATCTAC,0.421

# From article PMC12820563
